Measurements published in PubChem BioAssay (NCATS).
Several values for one entry are separate records, joined by “and”; a condition that tells them apart may be missing. Equal values may be shown once. Inconclusive results, whose numbers are uncertain, are shown with a selection of clear calls. For part of these data: Potencies beside an inconclusive call are fits to weak or partial responses and may not hold up. Activity calls are given as the source filed them. The call rests on the fitted dose curve; in most records, active means well fitted curve in the direction sought with a large enough effect; inconclusive means small, poorly fitted or top-dose-only effect, or another doubt; inactive means no such curve, though single readings can be large; an effect the other way counts as inactive or inconclusive.

How the values were obtained:
[1] = system: Zika virus NS2B-NS3 protease (linked construct); test: Primary screen NINDS Rhodamine qHTS for Zika virus inhibitors (AID 1347160); further: on the % scale 0 is the no-effect control and ±100 the full control effect; nearly all actives have a fitted effect of over 55% in size
Summary of the method: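 Purified linked NS2B-NS3 protease (NS2B hydrophilic domain joined to NS3 protease by flexible linker), 25 nM in 10 mM Tris-HCl pH 8.0, 0.01% Tween 20. Compounds titrated, 15 min preincubation at room temperature; 1.5 microM Rhodamine110 substrate, FITC fluorescence change over 15 min.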

[2] = system: JEG-3; test: Primary qHTS to identify gynecologic anti-cancer compounds using libraries of approved drugs and bioactive compounds (AID 1345084); conditions: Gynecologic cancer cell panel viability, ATPlite luminescence, 48 h; series mostly up to 57.5 µM; further: nearly all actives have a fitted effect of over 55% in size; further: potency means the concentration at half of the fitted maximal effect; on activity change, negative = cytotoxicity: on the % scale 0 is the no-effect control and ±100 the full control effect
Summary of the method: (§1)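 Measured: luminescence after ATPlite addition (15 min, RT). Exposure: 48 h, 37 C, 5% CO2.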

[3] = qHTS of pediatric cancer cell lines to identify multiple opportunities for drug repurposing: Primary screen for NB-EBc1 cells (AID 1347095); further: potency means the concentration at half of the fitted maximal effect
Summary of the method: (§2)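 Viability was measured as metabolically active cells after 48 hours of treatment, read by CellTiter-Glo luminescence. Compounds were tested at multiple final concentrations, giving concentration-response curves.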

[4] = qHTS of pediatric cancer cell lines to identify multiple opportunities for drug repurposing: Primary screen for MG 63 (6-TG R) cells (AID 1347105); conditions: MG 63 (6-TG R) viability, CellTiter-Glo, 48 h; activity change, negative = cytotoxic: at 46 µM (top of the series) unless noted; further: potency means the concentration at half of the fitted maximal effect; nearly all actives have a fitted effect of over 50% in size
Summary of the method: as §2

[5] = qHTS of pediatric cancer cell lines to identify multiple opportunities for drug repurposing: Primary screen for Rh30 cells (AID 1347107); further: potency means the concentration at half of the fitted maximal effect; nearly all actives have a fitted effect of over 75% in size
Summary of the method: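 Cells (500-1,000/well) rested 5 h, then received compounds for 48 h; metabolically active cells were measured by CellTiter-Glo luminescence. Final concentrations spanned up to 46 µM (MIPE, 11-point) or 0.59 nM-46 µM (NPC, 8-point) in primary screens, 11-point in follow-ups.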

[6] = Quantitative High-Throughput drug screen in 47 multiple myeloma cell lines against the NCATS MIPE library collection: KHM11_PLB cell viability assay (AID 1918962); conditions: KHM11 myeloma cell viability, CellTiter-Glo ATP luminescence, 48 h; viability, % of DMSO control: at 45.8 µM (top of the series); further: potency means the concentration at half of the fitted maximal effect; nearly all actives have a fitted effect of over 35% in size
Summary of the method: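 Primary qHTS used for cherry-picking: cells at 500/well, library compounds for 48 h (37C, 5% CO2), luminescent ATP assay.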

[7] = Quantitative High-Throughput drug screen in 47 multiple myeloma cell lines against the NCATS MIPE library collection: JIM1_ECACC cell viability assay (AID 1918964; further: potency means the concentration at half of the fitted maximal effect)
Summary of the method: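 Steps: seed 500 cells per well; pin-transfer MIPE 4.0 library; incubate 48 h at 37C, 5% CO2, humidified; add CellTiter-Glo, 5 min room temperature; read luminescence.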

[8] = Quantitative High-Throughput drug screen in 47 multiple myeloma cell lines against the NCATS MIPE library collection: L363_DSMZ cell viability assay (AID 1918984); conditions: L363 myeloma viability, CellTiter-Glo ATP luminescence, 48 h; viability (% of control): at 45.8 µM (top of the series); further: potency means the concentration at half of the fitted maximal effect; nearly all actives have a fitted effect of over 40% in size
Summary of the method: (§3)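 Plated at 500 cells per well, myeloma lines received MIPE 4.0 compounds by pin tool. Following 48 h culture at 37 °C, CellTiter-Glo luminescence gave viability relative to DMSO and media-only controls.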

[9] = Quantitative High-Throughput drug screen in 47 multiple myeloma cell lines against the NCATS MIPE library collection: SKMM1_PLB cell viability assay (AID 1919863); conditions: SKMM1 myeloma viability, CellTiter-Glo ATP, 48 h; viability: active compounds read low; further: nearly all actives have a fitted effect of over 35% in size; further: potency means the concentration at half of the fitted maximal effect
Summary of the method: as §3

[10] = Quantitative High-Throughput drug screen in 47 multiple myeloma cell lines against the NCATS MIPE library collection: UTMC2_PLB cell viability assay (AID 1919868); conditions: CellTiter-Glo ATP luminescence, 48 h; viability (% of DMSO control): at 45.8 µM (top of the series)
Summary of the method: as §3

[11] = system: MKL-2; test: qHTS assay to identify novel small-molecules to repurpose for Merkel cell carcinoma treatment (AID 1296009); conditions: MCC and control cell lines, CellTiter-Glo viability, 72 h; activity change, negative = cytotoxicity: at 46 µM (top of the series); further: potency means the concentration at half of the fitted maximal effect; nearly all actives have a fitted effect of over 60% in size
Summary of the method: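 After compound transfer in DMSO, plates were kept 72 hr at 37 degree celsius. Luminescent ATP signal from CellTiter-Glo served as viability measure, normalized against DMSO and no-cell controls.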

[12] = system: C33A; test: Primary qHTS to identify gynecologic anti-cancer compounds using libraries of approved drugs and bioactive compounds (AID 1345084); conditions: Gynecologic cancer cell panel viability, ATPlite luminescence, 48 h; series mostly up to 57.5 µM; further: nearly all actives have a fitted effect of over 55% in size; further: potency means the concentration at half of the fitted maximal effect; on activity change, negative = cytotoxicity: on the % scale 0 is the no-effect control and ±100 the full control effect
Summary of the method: as §1

[13] = Drug repurposing screens with cells derived from glioblastoma tumor samples (AID 1345199); conditions: GBM patient neurospheres viability, ATP luminescence, 48 h; Potency: tumour line A unless noted; activity, negative = cell killing: at 46 µM (top of the series), tumour line A unless noted; further: nearly all actives have a fitted effect of over 40% in size; further: potency means the concentration at half of the fitted maximal effect
Summary of the method: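 Four patient lines of CD133+ GBM neurospheres were screened at several concentrations; hits were retested in those lines plus three slower-growing GBM lines, using 48-hour treatment and ATP-based viability.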

[14] = system: CASKI; test: Primary qHTS to identify gynecologic anti-cancer compounds using libraries of approved drugs and bioactive compounds (AID 1345084); conditions: Gynecologic cancer cell panel viability, ATPlite luminescence, 48 h; activity change, negative = cytotoxicity: at 57.5 µM (top of the series); further: nearly all actives have a fitted effect of over 55% in size; further: potency means the concentration at half of the fitted maximal effect; on activity change, negative = cytotoxicity: on the % scale 0 is the no-effect control and ±100 the full control effect
Summary of the method: as §1

[15] = Primary qHTS for small molecule stabilizers of the endoplasmic reticulum resident proteome: Secreted ER Calcium Modulated Protein (SERCaMP) assay (AID 1508630); conditions: SH-SY5Y GLuc-SERCaMP (Gaussia luciferase released on ER calcium loss) secretion, thapsigargin, luminescence; activity change, negative = inhibition: at 38.4 µM (top of the series); further: potency means the concentration at half of the fitted maximal effect
Summary of the method: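 GLuc-SERCaMP-expressing SH-SY5Y cells, pretreated 16 h with compound, are challenged with thapsigargin to empty ER calcium stores; after 4 h, coelenterazine is added directly to the medium and luminescence is imaged.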

[16] = system: Tov112D; test: Primary qHTS to identify gynecologic anti-cancer compounds using libraries of approved drugs and bioactive compounds (AID 1345084); conditions: Gynecologic cancer cell panel viability, ATPlite luminescence, 48 h; activity change, negative = cytotoxicity: at 57.5 µM (top of the series); further: nearly all actives have a fitted effect of over 55% in size; further: potency means the concentration at half of the fitted maximal effect; on activity change, negative = cytotoxicity: on the % scale 0 is the no-effect control and ±100 the full control effect
Summary of the method: as §1
Tags describe the fitted curve by direction and shape.

Question: Which Potency [1] does the source give for `Cc1sc2c(c1C)C(c1ccc(Cl)cc1)=N[C@H](CC(=O)NCCCCNC(=O)COc1cccc3c1C(=O)N([C@H]1CCC(=O)NC1=O)C3=O)c1nnc(C)n1-2` here?
Answer: Its Potency is “inactive”.

Question: What about the Potency [2] of the same compound?
Answer: The Potency was inconclusive: 1410 nM [cytotoxic, full curve, poor fit].

Question: For `O=C(Cc1ccc(-c2ccc(OCCN3CCOCC3)cc2)cn1)NCc1ccccc1`, which Potency [3] is on record?
Answer: The Potency was active: 14.8 nM.

Question: And the Potency [4]?
Answer: Its Potency is active: 23.5 nM.

Question: What about the Potency [5] of the same compound?
Answer: The Potency was inconclusive: 9350 nM [cytotoxic, partial curve].

Question: What about the Potency [6] of the same compound?
Answer: Its Potency is active: 469 nM.

Question: What about the Potency [7] of the same compound?
Answer: The Potency was active: 7.4 nM.

Question: And the Potency [8]?
Answer: The Potency was active: 14.8 nM.

Question: What about the Potency [9] of the same compound?
Answer: The Potency was active: 16.6 nM.

Question: And the Potency [10]?
Answer: Its Potency is active: 33.2 nM.

Question: What about the Potency [11] of the same compound?
Answer: The Potency was inconclusive: 526 nM [inhibitor, full curve, poor fit].

Question: What about the Potency [12] of the same compound?
Answer: The Potency was inconclusive: 2240 nM [cytotoxic, full curve, poor fit].

Question: And the Potency [2]?
Answer: The Potency was inconclusive: 708 nM [cytotoxic, full curve].

Question: Which results are given for `Nc1ccn([C@H]2CC[C@@H](CO)O2)c(=O)n1`?
Answer: Potency [4]: inconclusive: 211 nM [cytotoxic, partial curve, poor fit]; Potency [5]: inconclusive: 16600 nM [cytotoxic, partial curve, poor fit]; Potency [6]: inconclusive: 33200 nM [cytotoxic, single point]; Potency [7]: inconclusive: 2.6 nM [rising, full curve, poor fit]; Potency [8]: inconclusive: 2.3 nM [rising, full curve, poor fit]; viability [9]: inactive: 109%; Potency [10]: inconclusive: 8330 nM [cytotoxic, partial curve, poor fit]; Potency [13]: inconclusive: 2820 nM [inhibitor, full curve]

Question: Which results are given for `CC(C)NCC(O)COc1cccc2[nH]ccc12` (configuration not stated)?
Answer: Potency [14]: inactive; Potency [13]: inactive

Question: With `C[C@@H](O[C@H]1OCCN(Cc2nn(P(=O)(O)O)c(=O)[nH]2)[C@H]1c1ccc(F)cc1)c1cc(C(F)(F)F)cc(C(F)(F)F)c1` as the compound, how does the Potency [14] read?
Answer: Its Potency is “inactive”.

Question: With `CCN1CCC[C@H]1CNC(=O)c1cc(S(N)(=O)=O)ccc1OC` as the compound, how does the Potency [15] read?
Answer: The Potency was inconclusive: 22.4 µM [inhibitor, single point] and inconclusive: 2 µM [inhibitor, full curve, poor fit].

Question: And the Potency [12]?
Answer: The Potency was “inactive”.

Question: And the Potency [16]?
Answer: The Potency was “inactive”.
